In the supplement of paper PMC3334620:
In all, about 33,000 sequences were measured (“E-score (-0.5 to 0.5)”: median about -0.041, highest 2% from about 0.37 on). The list shows a part of the results.

target: T1, Ecm22 (UniProt Q05958); assay: PBM E-score (8-mer binding enrichment) (E-score (-0.5 to 0.5)); higher = stronger / more preferred TF binding; most listed sequences are background and not binding sites; conditions: protein concentration: 200 nM; construct: GST-full length
T1 sequence: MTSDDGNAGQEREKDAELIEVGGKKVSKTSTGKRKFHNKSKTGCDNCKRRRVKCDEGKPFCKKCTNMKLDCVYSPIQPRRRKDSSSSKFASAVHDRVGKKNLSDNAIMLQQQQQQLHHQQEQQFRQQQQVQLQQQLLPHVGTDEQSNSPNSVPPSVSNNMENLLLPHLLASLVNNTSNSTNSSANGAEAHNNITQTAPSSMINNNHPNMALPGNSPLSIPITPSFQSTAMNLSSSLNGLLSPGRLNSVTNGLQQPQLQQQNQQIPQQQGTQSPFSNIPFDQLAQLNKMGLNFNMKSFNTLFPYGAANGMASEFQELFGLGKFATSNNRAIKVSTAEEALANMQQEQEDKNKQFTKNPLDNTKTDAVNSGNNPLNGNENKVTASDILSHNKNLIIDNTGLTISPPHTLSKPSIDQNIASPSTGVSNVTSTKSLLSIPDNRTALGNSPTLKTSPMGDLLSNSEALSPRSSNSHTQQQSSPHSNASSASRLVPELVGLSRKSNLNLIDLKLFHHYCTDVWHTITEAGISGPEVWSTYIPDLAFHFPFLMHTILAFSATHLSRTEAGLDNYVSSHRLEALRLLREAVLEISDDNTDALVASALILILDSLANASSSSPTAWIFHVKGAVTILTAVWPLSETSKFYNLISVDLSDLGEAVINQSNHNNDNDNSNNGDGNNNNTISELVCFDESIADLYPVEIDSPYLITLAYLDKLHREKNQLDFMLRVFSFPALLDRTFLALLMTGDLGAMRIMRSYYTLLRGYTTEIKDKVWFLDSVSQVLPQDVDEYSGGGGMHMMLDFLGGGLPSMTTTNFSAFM
Procedure, shortened: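 GST-tagged yeast TFs (full-length or DNA-binding domain) were made by PURExpress in vitro transcription/translation and applied at about 100-200 nM to universal all-10-mer Agilent arrays. The arrays were made double-stranded by primer extension, on fresh or once-stripped slides. Bound protein was detected with fluorescent anti-GST, and scans were normalised with masliner. Each ungapped eight-base word, pooled with its reverse complement, received an E-score (modified Wilcoxon-Mann-Whitney statistic) from the Universal PBM Analysis Suite.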

| Sequence | PBM E-score |
| --- | --- |
| CTTAACCC | -0.0863 |
| ACTTGCAG | -0.139 |
| AACGTAAG | 0.0805 |
| CTTGCAGC | -0.147 |
| GATTCTGA | 0.101 |
| ATCTTTAC | 0.17 |
| CAATACTG | -0.0536 |
| GCAAGCTA | -0.145 |
| ATTAGATC | -0.0252 |
| CACCTACA | -0.239 |
| AACTGACT | 0.0236 |
| GCGTACAC | 0.252 |
| ATCGGATG | 0.127 |
| ACTACAAA | -0.028 |
| TTAGCTAA | -0.182 |
| ACCACAAG | -0.255 |
| CGGTCCGC | 0.141 |
| ATTGCGTG | 0.0623 |
| ACGATCCG | 0.366 |
| GGTCGAGA | -0.0974 |
| ATGTCGAG | -0.0984 |
| TAATCGTA | 0.418 |

| Sequence | PBM E-score |
| --- | --- |
| CCCAAAAA | -0.227 |
| TCCTGAGA | -0.243 |
| AGAGGATC | -0.0672 |
| AAGTAATA | 0.0988 |
| AGTTCAAT | -0.152 |
| CCAAGAAC | -0.00212 |
| GCACACAC | -0.00107 |
| GTCCACAA | -0.202 |
| ACCTAATG | -0.232 |
| CCGCCTAC | -0.0607 |
| GAGAGCTA | 0.0882 |
| AACGACGA | 0.444 |
| ACCGTACA | 0.371 |
| GAAGATGA | -0.0687 |
| GTACGCCA | 0.145 |
| ACTAAACG | 0.457 |
| CTGACTAC | -0.277 |
| GGAGTATA | 0.0364 |
| AACGCGGC | 0.189 |
| CCGGACAA | -0.00597 |
| GACCTCCA | -0.114 |
| TCCGGCGA | -0.0052 |

| Sequence | PBM E-score |
| --- | --- |
| GTGATCGA | 0.0917 |
| CGGTCTTC | 0.176 |
| GGAAAGCC | -0.0598 |
| ATGAATGA | 0.0155 |
| CCCATGAG | -0.23 |
| GTCCCTTA | -0.0612 |
| TGGTGCAA | -0.143 |
| ATTGGCCA | -0.118 |
| CGATTCCG | 0.0468 |
| CTCGTAGA | 0.376 |
| AGCTTACA | -0.00967 |
| TAGCGGCA | -0.146 |
| GGGAGGAA | -0.0599 |
| AAACCAGC | -0.133 |
| GAAGTGGA | -0.115 |
| ACCGGCGA | 0.0117 |
| CATATAGG | -0.093 |
| TACTGACA | 0.0366 |
| ATAAGCAC | 0.103 |
| CTCTATAA | -0.2 |
| ACTGTGAT | -0.04 |
| AAACTATC | 0.108 |

| Sequence | PBM E-score |
| --- | --- |
| GGCCAATA | -0.0207 |
| ACATCATC | -0.0939 |
| CTGGGTGC | -0.0504 |
| AAACCGTG | -0.0465 |
| ACTTTTGG | -0.141 |
| TATCCATA | 0.181 |
| GCCGCATA | 0.225 |
| CCGTTACA | 0.0242 |
| CCTGCAGC | -0.066 |
| AGTTAGTG | -0.15 |
| AAATAGAT | 0.121 |
| TATCGGGA | 0.0692 |
| TGCCAACA | 0.0274 |
| TGTAGGAA | -0.00384 |
| ACATCCCT | -0.128 |
| ATGTCCTA | -0.0731 |
| AAATACCG | 0.176 |
| AAGAGCTG | -0.264 |
| AGGTTGAA | 0.00678 |
| CACGTCCC | -0.184 |
| CGCCACAG | -0.239 |
| TTATAGAA | -0.0153 |

| Sequence | PBM E-score |
| --- | --- |
| AGGCCCAA | -0.0795 |
| AGCAGTCA | -0.0771 |
| ATTGAAAG | -0.225 |
| CCGAAATA | 0.239 |
| CCTGTTTC | -0.102 |
| CATTCCGA | 0.0438 |
| CTGATAGC | -0.0763 |
| GGCTCATA | -0.11 |
| TACGACGA | 0.469 |
| CAAATCAG | -0.194 |
| GGGGCCCA | -0.178 |
| ACCCCAAA | 0.0197 |
| AGCACCTC | -0.0692 |
| CCTAAATA | -0.041 |
| AACAAGGG | -0.00652 |
| ATATTTCA | 0.0426 |
| CGCATCAA | 0.0609 |
| AAAATGGT | 0.0341 |
| AAGATCTG | -0.153 |
| CTCCCAAA | -0.0526 |
| AAACAAAC | 0.0233 |
| ATTGACCC | 0.0352 |
